pKi: −log10 of the molar value. *1 amine or outer side, *2 acyl side, *3 side chain or, on linkers, in order; H or OH if unused. Where a SMILES comes first, the peptide text is derived from it. [ ]: non-standard residue; d: D form. The star is where a group is joined. ξ: configuration not given here. Pro(4,4-S(CH2)3S) = O=C(O)[C@@H]1CC2(CN1)SCCCS2; ξPhg(3,5-(OMe)2) = COc1cc(OC)cc(C(N)C(=O)O)c1; ξLeu(ψCOCO) = CC(C)CC(N[*:1])C(=O)C(=O)[*:2]; X25 = O=C(O)c1c(F)c(F)c(F)c(F)c1C(=O)*; Isobutyloxycarbonyl = CC(C)COC(=O)*; Cyclopentylacetyl = O=C(CC1CCCC1)*; X15 = CC(=O)Nc1ccc(S(=O)(=O)*)cc1; ξPhg(3-F) = NC(C(=O)O)c1cccc(F)c1; Hyp = O=C(O)[C@@H]1C[C@@H](O)CN1; X2 = CCCC(N[*:1])C(=O)C(=O)[*:2]; X55 = O=C(c1ccccc1Oc1ccccc1)*; CH2CO2tBu = CC(C)(C)OC(=O)C*; Chg = N[C@H](C(=O)O)C1CCCCC1; Phg = N[C@H](C(=O)O)c1ccccc1; Tle = CC(C)(C)[C@H](N)C(=O)O; X51 = O=C(O)C1CCC(C(=O)*)CC1; ξCha = NC(CC1CCCCC1)C(=O)O; X41 = O=C(Cc1ccc(Br)cc1)*; ξChg = NC(C(=O)O)C1CCCCC1; ξPhg = NC(C(=O)O)c1ccccc1; Carboxymethyl = O=C(O)C*; Boc = CC(C)(C)OC(=O)*; ξNle = CCCCC(N)C(=O)O; ξV = CC(C)C(N)C(=O)O; Bn = c1ccc(C*)cc1; OtBu = CC(C)(C)O*; Ms = CS(=O)(=O)*; tBu = CC(C)(C)*
What follows are molecules tested against HCV NS3/NS4A protease (strain 1a) (Hepatitis C virus genotype 1a, UniProt P27958) (assay: biochemical). Settings: Compounds prepared by Solid Phase Synthesis, Table 3; read-out: Ki* CLASS.

| SMILES | pKi |
| --- | --- |
| CCCCC(NC(=O)CNC(=O)C(=O)C(CCC)NC(=O)[C@@H]1C[C@@H](OCC(=O)O)CN1C(=O)C(NC(=O)CC1CCCC1)C1CCCCC1)C(N)=O (some centres unmarked) (Cyclopentylacetyl-[ξChg][Hyp](Carboxymethyl)[X2]G[ξNle]-NH2) | < 6.00 |
| CCCC(NC(=O)[C@@H]1C[C@@H](OCc2ccccc2)CN1C(=O)C(NC(=O)c1ccccc1Oc1ccccc1)C1CCCCC1)C(=O)C(=O)NCC(=O)NC(C(N)=O)c1ccccc1 (some centres unmarked) (X55-[ξChg][Hyp](Bn)[X2]G[ξPhg]-NH2) | < 6.00 |
| CC(C)CC(NC(=O)[C@@H]1C[C@@H](OC(C)(C)C)CN1C(=O)[C@@H](NC(=O)C1CCC(C(=O)O)CC1)C1CCCCC1)C(=O)C(=O)NCC(=O)N[C@H](C(N)=O)c1ccccc1 (some centres unmarked) (X51-[Chg][Hyp](tBu)[ξLeu(ψCOCO)]G[Phg]-NH2) | < 6.00 |
| CCCC(NC(=O)[C@@H]1CCCN1C(=O)[C@@H](NC(=O)OC(C)(C)C)C1CCCCC1)C(=O)C(=O)NCC(=O)N[C@H](C(N)=O)c1ccccc1 (some centres unmarked) (Boc-[Chg]P[X2]G[Phg]-NH2) | < 6.00 |
| CCCC(NC(=O)[C@@H]1C[C@@H](OC(C)(C)C)CN1C(=O)[C@@H](NC(=O)OCC(C)C)C1CCCCC1)C(=O)C(=O)NCC(=O)NC(C(N)=O)c1cccc(F)c1 (some centres unmarked) (Isobutyloxycarbonyl-[Chg][Hyp](tBu)[X2]G[ξPhg(3-F)]-NH2) | 6.00 to 7.00 |
| CCCC(NC(=O)[C@@H]1C[C@@H](OC(C)(C)C)CN1C(=O)[C@@H](NC(=O)c1c(F)c(F)c(F)c(F)c1C(=O)O)C1CCCCC1)C(=O)C(=O)NCC(=O)NC(C(N)=O)c1cc(C)cc(C)c1 (some centres unmarked) | 7.00 to 9.00 |
| CCCC(NC(=O)[C@@H]1C[C@@H](OC(C)(C)C)CN1C(=O)[C@@H](NC(=O)CC1CCCC1)C1CCCCC1)C(=O)C(=O)NCC(=O)N[C@H](C(N)=O)c1ccccc1 (some centres unmarked) (Cyclopentylacetyl-[Chg][Hyp](tBu)[X2]G[Phg]-NH2) | 7.00 to 9.00 |
| CCCC(NC(=O)[C@@H]1C[C@@H](OC(C)(C)C)CN1C(=O)[C@@H](NC(=O)OC(C)(C)C)C(C)(C)C)C(=O)C(=O)NCC(=O)N[C@H](C(N)=O)c1ccccc1 (some centres unmarked) (Boc-[Tle][Hyp](tBu)[X2]G[Phg]-NH2) | 6.00 to 7.00 |
| CCCC(NC(=O)[C@@H]1C[C@@H](OC(C)(C)C)CN1C(=O)[C@@H](NC(=O)OCC(C)C)C1CCCCC1)C(=O)C(=O)NCC(=O)NC(C(N)=O)c1cccc(C)c1 (some centres unmarked) | 6.00 to 7.00 |
| CCCC(NC(=O)[C@@H]1CCCN1C(=O)C(NC(=O)OCC(C)C)C(C)C)C(=O)C(=O)NCC(=O)NC(CC1CCCCC1)C(N)=O (some centres unmarked) (Isobutyloxycarbonyl-[ξV]P[X2]G[ξCha]-NH2) | < 6.00 |
| CCCC(NC(=O)[C@@H]1C[C@@H](OC(C)(C)C)CN1C(=O)[C@@H](NC(=O)c1c(F)c(F)c(F)c(F)c1C(=O)O)C1CCCCC1)C(=O)C(=O)NCC(=O)NC(C(N)=O)c1cccc(F)c1 (some centres unmarked) (X25-[Chg][Hyp](tBu)[X2]G[ξPhg(3-F)]-NH2) | 6.00 to 7.00 |
| CCCC(NC(=O)[C@@H]1C[C@@H](OC(C)(C)C)CN1C(=O)[C@@H](NC(=O)[C@@H](NS(C)(=O)=O)C(C)C)C1CCCCC1)C(=O)C(=O)NCC(=O)NC(C(N)=O)c1cccc(F)c1 (some centres unmarked) (Ms-V[Chg][Hyp](tBu)[X2]G[ξPhg(3-F)]-NH2) | 6.00 to 7.00 |
| CCCC(NC(=O)[C@@H]1C[C@@H](OC(C)(C)C)CN1C(=O)[C@@H](NC(=O)c1c(F)c(F)c(F)c(F)c1C(=O)O)C1CCCCC1)C(=O)C(=O)NCC(=O)NC(C(N)=O)c1cc(OC)cc(OC)c1 (some centres unmarked) (X25-[Chg][Hyp](tBu)[X2]G[ξPhg(3,5-(OMe)2)]-NH2) | 6.00 to 7.00 |
| CCCCC(NC(=O)CNC(=O)C(=O)C(CCC)NC(=O)[C@@H]1C[C@@H](OCC(=O)OC(C)(C)C)CN1C(=O)C(NC(=O)Cc1ccc(Br)cc1)C1CCCCC1)C(N)=O (some centres unmarked) (X41-[ξChg][Hyp](CH2CO2tBu)[X2]G[ξNle]-NH2) | < 6.00 |

Same assay, conditions: HCV protease continuous assay results, Table 1; read-out: Ki* Range

| SMILES | pKi |
| --- | --- |
| CCCCC(NC(=O)[C@@H]1C[C@@H](OC(C)(C)C)CN1C(=O)[C@@H](NC(=O)OCC(C)C)C(C)(C)C)C(=O)C(=O)NCC(=O)N[C@@H](CNC(=O)c1ccco1)c1ccccc1 (some centres unmarked) [Example 283] | < 6.00 |
| CCCC(NC(=O)[C@@H]1C[C@@H](OC(C)(C)C)CN1C(=O)[C@@H](NC(=O)OCC(C)C)C1CCCCC1)C(=O)C(=O)NCC(=O)N[C@H](C(=O)OC(C)(C)C)c1ccccc1 (some centres unmarked) [Example 205] (Isobutyloxycarbonyl-[Chg][Hyp](tBu)[X2]G[Phg]-OtBu) | 6.00 to 7.00 |
| C=CCNC(=O)C(=O)C(CCC)NC(=O)[C@@H]1CCCN1C(=O)[C@H](CC1CCCCC1)NC(=O)OC(C)(C)C (some centres unmarked) [Example 60] | < 6.00 |
| CCCC(NC(=O)[C@@H]1CC2(CN1C(=O)[C@@H](NS(=O)(=O)c1ccc(NC(C)=O)cc1)C1CCCCC1)SCCCS2)C(=O)C(=O)NCC(=O)NC(C(=O)OC(C)(C)C)c1ccccc1 (some centres unmarked) [Example 122] (X15-[Chg][Pro(4,4-S(CH2)3S)][X2]G[ξPhg]-OtBu) | 6.00 to 7.00 |
| CCCOC(=O)CNC(=O)C(=O)C(CCC)NC(=O)[C@@H]1CCCN1C(=O)[C@@H](NC(=O)OCC(C)C)C(C)C (some centres unmarked) [Example 8] | < 6.00 |
| CCCC(NC(=O)[C@@H]1CCCN1C(=O)[C@@H](NC(=O)OCC(C)C)C(C)C)C(=O)C(=O)NCC(=O)N[C@@H](CCC(=O)OCC)C(=O)OCC (some centres unmarked) [Example 13] (Isobutyloxycarbonyl-VP[X2]GE(OEt)-OEt) | < 6.00 |

Same assay, conditions: Table 4; HCV NS3/NS4A protease, spectrophotometric assay, 30° C., pH 6.5; read-out: Ki* Range

| pKi | SMILES |
| --- | --- |
| 7.00 to 9.00 | CCCC(NC(=O)C1CC(C)(C)CN1C(=O)[C@@H](NC(=O)OCC(C)C)C1CCCCC1)C(=O)C(=O)NCC(=O)N[C@H](C(N)=O)c1ccccc1 (some centres unmarked) |
| 7.00 to 9.00 | CCCC(NC(=O)[C@@H]1CC2(CCCC2)CN1C(=O)[C@@H](NC(=O)OCC(C)C)C1CCCCC1)C(=O)C(=O)NCC(=O)NC(C(=O)OC)c1ccccc1 (some centres unmarked) |

Same assay, conditions: Table 5; HCV NS3/NS4A protease, 30° C., pH 6.5; read-out: Ki* Range

| pKi | SMILES |
| --- | --- |
| 6.00 to 7.00 | C=CCCNC(=O)C(=O)C(CCC=C)NC(=O)[C@@H]1[C@@H]2CC(C)(C)O[C@@H]2CN1C(=O)[C@@H](NC(=O)OC(C)(C)C)C1CCCCC1 (some centres unmarked) |

Reference: US7592316B2, “Peptides as NS3-serine protease inhibitors of hepatitis C virus” (Schering Corporation, priority 2000, dated 2009)
